According to the supplement of paper PMC7125110:
± gives the standard error. This sample is rich in variants without activity.

B1: glmS ribozyme (parent)
chain: AUAAAAGCGCCAGAACUACAGAAAUGUAGUUGACGAGGAGGAGGUUUAUCGAAUUUUCGGCGGAUGCCUCCAAA

Variants of: B1
Experiment: self-cleavage kobs at 2500 uM GlcN6P; higher = faster cleavage; RNA array
Details: with glucosamine-6-phosphate
Procedure, shortened: (§1)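 Barcoded glmS ribozyme variants on sequenced MiSeq chips were transcribed in situ by E. coli RNA polymerase and tracked through a hybridised Cy3 probe at 37 °C. Glucosamine-6-phosphate (40 μM to 10 mM) in HEPES/KCl/Mg(OAc)2 buffer was flowed in, and tiles were imaged over ~14 h. Signals were normalised to baseline and to non-cleaving reference variants; per-tile medians were fit to one- or two-exponential decays to give kobs. kcat and KM came from weighted Michaelis–Menten fits across concentrations.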

Variant | self-cleavage kobs at 2500 uM GlcN6P [s⁻¹]
C8G C11A C70U | < 1e-05
C8G C16A G29U A33G A36G | < 1e-05
C8G C16G G40C | < 1e-05
C8G G13C A14C U49A A52C C67G C70U | < 1e-05
C8G G32A A33U U45A U57C C58A | < 1e-05
C8G U69A | < 1e-05
C8U A33G A48U U49G C50U | < 1e-05
C8U A33G A64U | < 1e-05
C8U C10A A15C | < 1e-05
C8U C11G C34G G51U U55A A64G | < 1e-05
C8U C34A A48U | < 1e-05
C8U U46G G63U | < 1e-05
C8U U55G C61U C68A | < 1e-05
G9A A42C C58G C70G | < 1e-05
G9A C11G A12U | < 1e-05
G9A G29C G35A G44U U46A A64C | < 1e-05
G9A G37A G60A | < 1e-05
G9A U30G C58G A64G | < 1e-05
G9A U57G C71U | < 1e-05
G9C A48G C67U | < 1e-05
G9C C10A C11U C34U A48C C58G | < 1e-05
G9C C50U A52G | < 1e-05
G9C G35U G63C | < 1e-05
G9C G40U U54A G62C G63U | < 1e-05

Variant | self-cleavage kobs at 2500 uM GlcN6P [s⁻¹]
G9C G60U U65G | < 1e-05
G9U A14G C61A A64G C70G | 6.76e-05 ± 2.1e-05
G9U C10U A33U U47G | < 1e-05
G9U C11G C70U | < 1e-05
G9U C16G A33G U65C | < 1e-05
G9U G29U G35U G38C U45G U49A | < 1e-05
G9U G43A A53U U65A U69A | < 1e-05
G9U U31G G38A | < 1e-05
C10A A12U U49A | < 1e-05
C10A G35U C58A | < 1e-05
C10A U31A U45G | < 1e-05
C10G A36G A52U | < 1e-05
C10G A39U G44U | < 1e-05
C10G A42C U45G | < 1e-05
C10G A64G U65G | < 1e-05
C10G C34A G37A G60U | < 1e-05
C10G C34G C61U | < 1e-05
C10G G29A C61G G63U | < 1e-05
C10G G44U C71A | < 1e-05
C10U A36C G62U | < 1e-05
C10U A42C G62A U65G C68U | < 1e-05
C10U A42U C50U G51A | < 1e-05
C10U A53G G66U C68G | 4.34e-05 ± 1.4e-05
C10U C11A G66A | < 1e-05

Variant | self-cleavage kobs at 2500 uM GlcN6P [s⁻¹]
C10U C16U G32U G37U G43C | < 1e-05
C10U G29C A36G G41U U54A | < 1e-05
C10U G38A U54A | < 1e-05
C10U G40A G44C C70A | < 1e-05
C10U G60C G63U | < 1e-05
C10U U30C G44A C68A | < 1e-05
C11A A14C A42C U55C A64G | < 1e-05
C11A A36G U65C C71A | < 1e-05
C11A A52G G60C | < 1e-05
C11A A52U U65C | < 1e-05
C11A C34G U49A | < 1e-05
C11A U45G U46G A53C | < 1e-05
C11G A12U U30C G40C C50G | < 1e-05
C11G A36U U49G | < 1e-05
C11G C50A A52U | < 1e-05
C11U C16U A36G A52G | < 1e-05
C11U G29A G51U | < 1e-05
C11U G29C U31A | < 1e-05
C11U G38C C61U | < 1e-05
C11U G41U G43C A52G C68U | < 1e-05
C11U U31A G41A U55C | < 1e-05
C11U U31C C50U | < 1e-05
C11U U65G C68U | 0.000106 ± 3.6e-05
A12C A33G C34U C50A A64U C70G | 0.00011 ± 4.2e-05

Variant | self-cleavage kobs at 2500 uM GlcN6P [s⁻¹]
A12C A52U C67U | 0.000185 ± 4.2e-05
A12C G32C G37U A53U U54G | < 1e-05
A12C G37C A39C | < 1e-05
A12C G40U G44U | < 1e-05
A12G A14U C34A G40C G63A | < 1e-05
A12G A52U C70A | < 1e-05
A12G C19A A52C | < 1e-05
A12G U47A G59U | < 1e-05
A12U A15C G37A G44A A52U | < 1e-05
A12U G41U A42G G51C | < 1e-05
G13A A33C A48C | < 1e-05
G13A A33C G38C C58A | < 1e-05
G13A G38A U55C G60A | < 1e-05
G13A G51C C67G | < 1e-05
G13C C16G U30G C71U | < 1e-05
G13C G29A G40U U56A C70A | < 1e-05
G13U A15U C71U | 5.99e-05 ± 2.5e-05
G13U G37U A53G G59A | < 1e-05
G13U U57C | 3.41e-05 ± 1.3e-05
A14C C61G G63C | < 1e-05
A14G A42G A52U | 9.16e-05 ± 3.3e-05

Variants of: B1
Experiment: self-cleavage kobs at 10000 uM GlcN6P; higher = faster cleavage; RNA array
Details: with glucosamine-6-phosphate
Procedure, shortened: as §1

Variant | self-cleavage kobs at 10000 uM GlcN6P [s⁻¹]
G9A C11G A12U | < 1e-05
G9U C10U A33U U47G | < 1e-05
C10A A12U U49A | < 1e-05
C11U G41U G43C A52G C68U | < 1e-05
C11U U65G C68U | 5.53e-05 ± 1.2e-05
A12U G41U A42G G51C | < 1e-05
G13U U57C | 3.63e-05 ± 1.8e-05
